Laboratory results from the supplement of paper PMC3334620.
Over roughly 33,000 sequences, “E-score (-0.5 to 0.5)” has its median near -0.035; the highest 2% begin near 0.35. Some of the results follow.

Molecular target: T1, Pdr3 (UniProt P33200)
T1 sequence: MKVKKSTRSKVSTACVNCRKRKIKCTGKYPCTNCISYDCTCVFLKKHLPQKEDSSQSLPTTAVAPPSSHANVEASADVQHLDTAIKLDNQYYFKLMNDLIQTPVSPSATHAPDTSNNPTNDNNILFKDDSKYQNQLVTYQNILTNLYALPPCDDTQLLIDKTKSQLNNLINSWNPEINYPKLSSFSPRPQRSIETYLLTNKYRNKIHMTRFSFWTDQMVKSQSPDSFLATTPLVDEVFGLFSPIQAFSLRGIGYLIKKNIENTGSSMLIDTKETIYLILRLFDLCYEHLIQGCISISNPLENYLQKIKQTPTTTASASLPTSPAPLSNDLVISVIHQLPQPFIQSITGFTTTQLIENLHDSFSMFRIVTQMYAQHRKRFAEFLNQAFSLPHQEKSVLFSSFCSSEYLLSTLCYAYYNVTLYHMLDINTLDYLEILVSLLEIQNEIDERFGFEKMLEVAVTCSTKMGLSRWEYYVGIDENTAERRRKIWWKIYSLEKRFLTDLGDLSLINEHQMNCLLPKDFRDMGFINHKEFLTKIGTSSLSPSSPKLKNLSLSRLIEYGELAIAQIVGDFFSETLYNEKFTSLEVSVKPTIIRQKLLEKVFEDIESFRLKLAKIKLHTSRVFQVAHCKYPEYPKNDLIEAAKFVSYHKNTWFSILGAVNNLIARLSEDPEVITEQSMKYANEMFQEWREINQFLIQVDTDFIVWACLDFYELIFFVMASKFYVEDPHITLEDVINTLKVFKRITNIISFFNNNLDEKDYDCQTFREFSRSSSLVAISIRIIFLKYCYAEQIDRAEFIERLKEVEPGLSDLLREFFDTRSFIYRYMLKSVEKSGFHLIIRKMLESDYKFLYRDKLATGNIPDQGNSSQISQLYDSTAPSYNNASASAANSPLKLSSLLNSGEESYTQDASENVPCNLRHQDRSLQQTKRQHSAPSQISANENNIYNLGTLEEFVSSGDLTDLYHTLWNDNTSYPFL
Test: PBM E-score (8-mer binding enrichment) (E-score (-0.5 to 0.5)); higher = stronger / more preferred TF binding; most listed sequences are background and not binding sites
Details: protein concentration: 200 nM; construct: GST-full length
How it was run: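 Yeast transcription factors, full-length or as DNA-binding domains, were expressed with a GST tag using PURExpress in vitro transcription/translation. At about 100-200 nM they were applied to universal all-10-mer Agilent arrays, double-stranded by primer extension on fresh or once-stripped slides. Fluorescent anti-GST detected bound protein, and masliner normalised the scans. E-scores for ungapped eight-base words, pooled with reverse complements, came from the Universal PBM Analysis Suite.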

Sequence | PBM E-score
AGCAATGG | -0.0344
GACCAGTC | -0.116
ATGGTGAG | -0.18
AGGACAGA | -0.0364
CCGGTGAC | 0.123
ACTAGCAC | -0.139
CTCCGATA | 0.266
AGTTGTAA | -0.171
ATTTTATA | 0.257
CCTCCCAA | -0.0444
ACGCTGCT | -0.114
GAACTAGA | 0.0196
GGAGGAGA | -0.0344
CAAATTGC | 0.0819
CTTGAATA | -0.02
GATGACCC | -0.0274
ACTCGAAC | -0.0758
AGACTGCG | -0.129
CCAGCTCC | -0.00677
GAATTGCA | 0.0559
ATACCTAC | -0.076
GCTTGAGA | -0.196

Sequence | PBM E-score
AGTACGGC | 0.133
ATAGTTTA | -0.127
CTAGACGA | -0.231
ACACCGGG | 0.184
AGACTGGG | -0.0821
TATTCTGA | -0.0638
CTATGGAG | -0.306
AAGTTTAC | -0.0671
GGGTGCAA | 0.179
TAAAGATA | 0.0993
GGGAAAGA | 0.0836
GTCAATGA | -0.24
ACTGAGCT | -0.111
CTGAGATA | -0.0303
AAAGACTT | -0.41
CAAGGCGC | 0.108
AAAATGCG | 0.169
ATCAAGTA | -0.0615
TAGTAAAA | 0.0352
CCATACGA | -0.237
ACAATCTG | -0.0806
AGTATGTA | -0.14

Sequence | PBM E-score
ACACCGGC | 0.179
CGACTGTA | -0.287
TATCCTAA | -0.081
AAGCAGTC | -0.0933
CTTCACTA | -0.181
ACGCTAGA | -0.276
ACCGAGGA | 0.0369
TAGTGCCA | -0.125
ATCATGGC | -0.0314
ACATGTCG | 0.0268
GGCGCTGA | 0.0913
AGTCGTCC | -0.0586
ACTGCCAC | -0.0951
AAGCATAC | -0.117
GTTTTCAA | 0.079
GGAGCATA | 0.202
CCGCCACG | 0.192
CACCGTTC | 0.0473
ACTTGGTC | 0.163
ACTATGGG | -0.119
CTATCATC | 0.07
ACTGAGGG | -0.243

Sequence | PBM E-score
CGGTCCAA | 0.037
ATAAAGCA | -0.151
ATATCAAG | 0.0811
CATACAGG | -0.141
AGATGTAA | -0.157
CCCCTGAG | -0.208
AATCGTTA | -0.033
TCCACGGA | 0.477
ATATGCCC | -0.0312
AGGAACTA | 0.0717
ATAGGAAG | -0.126
ATGCCAGG | 0.0467
CGTGATCA | -0.0355
CAACGCAA | 0.0707
GGCGAACA | 0.0443
ACATGGGG | -0.0899
CCCGGCGG | 0.382
CGTCGTCC | 0.0525
GCTAACAC | -0.0326
AAATGAGC | -0.122
